Assay results published in the supplement of paper PMC3334620.
The full ranking holds about 33,000 sequences; the median of “E-score (-0.5 to 0.5)” is about -0.016, and the highest 2% start at about 0.32. This is one part of the list.

target: T1, Stp1 (UniProt B3LFK1); assay: PBM E-score (8-mer binding enrichment) (E-score (-0.5 to 0.5)); higher = stronger / more preferred TF binding; most listed sequences are background and not binding sites; details: protein concentration: 200 nM; construct: GST-full length
T1 sequence: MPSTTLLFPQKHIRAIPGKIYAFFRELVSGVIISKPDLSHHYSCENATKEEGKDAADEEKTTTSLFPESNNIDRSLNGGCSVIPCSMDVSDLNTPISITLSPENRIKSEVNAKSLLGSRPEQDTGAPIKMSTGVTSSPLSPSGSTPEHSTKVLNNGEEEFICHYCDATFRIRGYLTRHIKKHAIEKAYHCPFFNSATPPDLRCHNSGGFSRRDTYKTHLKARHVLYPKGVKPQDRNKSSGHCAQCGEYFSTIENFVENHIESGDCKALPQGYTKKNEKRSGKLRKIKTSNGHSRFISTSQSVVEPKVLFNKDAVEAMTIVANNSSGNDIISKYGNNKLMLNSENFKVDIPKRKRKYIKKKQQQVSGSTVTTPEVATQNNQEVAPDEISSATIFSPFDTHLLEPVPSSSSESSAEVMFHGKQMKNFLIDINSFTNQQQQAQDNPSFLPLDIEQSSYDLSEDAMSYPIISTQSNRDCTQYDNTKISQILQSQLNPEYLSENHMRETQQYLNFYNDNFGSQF
Procedure, shortened: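 Using PURExpress in vitro transcription/translation, GST-tagged yeast transcription factors were made in full-length or DNA-binding-domain form. These were applied at about 100-200 nM to double-stranded universal all-10-mer Agilent arrays, and bound protein was detected with fluorescent anti-GST. Scans were normalised with masliner before the Universal PBM Analysis Suite assigned E-scores to ungapped eight-base words pooled with their reverse complements.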

Row | Sequence | PBM E-score
1 | AGAAGTAA | 0.167
2 | CGACACCC | -0.329
3 | ACCCGCTA | -0.213
4 | AACGTGAC | -0.0663
5 | CGGATTGA | -0.0976
6 | CGGTAGAA | -0.0973
7 | ATTGACGG | -0.0563
8 | TGCAATAA | 0.162
9 | GATCAGCC | -0.183
10 | CCGTTAAG | 0.0535
11 | AATGATGC | 0.108
12 | AGCAAAAC | -0.0569
13 | AATCAGTG | -0.131
14 | AGCGGATC | 0.00559
15 | AGTTTGGG | 0.0216
16 | GGTTGACA | -0.0134
17 | ACATAACT | 0.0357
18 | CACACCGA | -0.00909
19 | CAGGTAAA | 0.0828
20 | CGTCGTTC | 0.107
21 | CAGGGACC | -0.449
22 | ACCAACCA | -0.0383
23 | ACAGGGAT | -0.0529
24 | ATCGAAGC | 0.0408
25 | CATGCGAG | -0.00999

Row | Sequence | PBM E-score
26 | AAGAAAGG | 0.125
27 | AGCTTCAG | -0.29
28 | AGAAAATG | 0.0252
29 | GCTGAGCC | 0.187
30 | CCGGGGCA | -0.151
31 | AAAACCCT | -0.17
32 | CCATTCAC | -0.0255
33 | CCTGGGTA | -0.174
34 | CATGAGAA | 0.0807
35 | CTTCCGTC | 0.0795
36 | AGCCCCAT | -0.163
37 | CCATGGGA | -0.224
38 | CCACCAAA | 0.0371
39 | ACCGTATG | 0.182
40 | ACCAAGAT | -0.0294
41 | AGTGAAGG | -0.189
42 | ACTCGGCG | 0.223
43 | CTTGCTAA | -0.102
44 | CCATCTAG | -0.186
45 | CGTTTACA | 0.0891
46 | GATACTGA | 0.0896
47 | GCTGCTAC | -0.0577
48 | GGGCCGAC | -0.204
49 | CCCATTAC | -0.146
50 | CATTCAGG | -0.177

Row | Sequence | PBM E-score
51 | AATGTGGA | 0.0474
52 | GTGAAGCA | -0.0566
53 | GCCAAAGA | -0.0782
54 | ATATGATC | 0.143
55 | AGAGCGGC | 0.307
56 | ATTGCCAA | -0.0869
57 | GACGGGTA | -0.315
58 | CATAGGGC | 0.152
59 | ACAGGCAA | 0.0874
60 | ATGACTAA | -0.0612
61 | CCTGGGGA | -0.337
62 | CGGTGTGA | -0.0591
63 | GAATGCGC | 0.0126
64 | GTAGACAC | 0.0442
65 | CAAGAGCG | 0.0688
66 | ACCGATGC | 0.0462
67 | GTATTAGA | 0.108
68 | GCGGAGCC | 0.276
69 | GGCTCACC | -0.133
70 | TGCAACAA | 0.0328
71 | ATCGGGCA | -0.28
72 | TCAAACCA | -0.00071
73 | CACTCTAC | 0.121
74 | ACCAGCAG | -0.215
75 | CGGTGGTC | -0.149

Row | Sequence | PBM E-score
76 | ACATTCAT | -0.0289
77 | AGCCAGGA | 0.00952
78 | AATTCAAG | 0.0237
79 | ACTTGGGA | -0.208
80 | GCTCAAAA | 0.112
81 | CTCTATCC | -0.0874
82 | GGTTCTAC | -0.148
83 | CTTGCTCC | -0.0209
84 | GTCGACTA | 0.157
85 | CATATGTC | -0.208
86 | ATACCACC | 0.00929
87 | CATGCTAG | -0.216
88 | ATAAGATG | 0.158
89 | CTGATAGA | -0.0315
90 | CATGCTGC | -0.143
91 | ATTTTCTC | 0.0415
92 | AGTAGCCA | -0.155
93 | AGATTCGA | -0.0415
94 | AAAGACCT | -0.0698
95 | GATTGATA | 0.025
96 | GGCATGCC | 0.255
97 | CTCATGCA | -0.0421
98 | TTATTAAA | 0.18
99 | AAGGTGCA | -0.0167
100 | CGTAGTCC | -0.155

Row | Sequence | PBM E-score
101 | AACGTCAA | 0.0741
102 | CTTGTGAA | 0.104
103 | AAACGCCA | 0.345
104 | AATATGGT | 0.081
105 | ATAGGACC | -0.261
106 | AACGGGGC | 0.186
107 | CTCAAGTC | -0.224
108 | CCCTTATA | -0.15
109 | AAGGAAAG | -0.12
110 | GGTTCCTA | -0.092
111 | ACAAGAGG | 0.103
112 | CAAGTCAA | -0.124
113 | ACAGTCCA | -0.17
114 | TAATGCTA | 0.144
115 | GATGGGCA | 0.0916
116 | AAAATCTG | 0.0757
117 | TAGTAGCA | 0.0314
118 | CGCTTCCC | -0.0155
119 | ATCTGTGA | -0.043
120 | CGTATGAG | 0.024
121 | AAAGCACC | -0.0771
122 | ATCTCCAG | -0.0955
123 | GTGGCTCA | -0.0195
124 | CAACCATG | -0.0314
125 | AGCTTGAG | -0.163

Row | Sequence | PBM E-score
126 | CCGCGGCA | 0.441
127 | CAGGCCTA | -0.153
128 | CCTCAGAA | -0.0809
129 | CACTGATA | 0.0376
130 | CCAGTCGC | -0.059
131 | ACCTACGA | -0.126
132 | AGTGCCGC | 0.477
133 | ATCGATGA | 0.096
134 | CCTCTCCC | -0.253
135 | AGTTCCAG | -0.102
136 | AGAGTTCG | 0.132
137 | GTGACGTA | -0.00784
138 | CGTAAGGA | -0.0941
139 | CATCGATC | -0.136
140 | CAGACGCA | -0.0219
141 | CGGCCTAA | 0.0381
142 | CGGTAACG | -0.139
143 | GGCGAGCC | -0.0109
144 | CTAGCGAA | -0.163
145 | AGATGAAA | 0.195
146 | AGGTTAAG | -0.229
147 | CGCCCCGA | 0.0222
148 | CCTGAAGG | -0.12
149 | GCACAAAC | 0.195
150 | CCCCAACA | -0.224

Row | Sequence | PBM E-score
151 | GATGGGAA | -0.169
152 | ACTCTAAC | -0.0909
153 | GATGAATC | 0.0331
154 | CGTGTAGC | -0.0261
155 | CCGAACAG | -0.13
156 | ACAAAATA | -0.0287
157 | AGTGAGTG | -0.143
158 | CGATTCCC | -0.155
159 | AATTCTTG | 0.174
160 | AGTCGCAC | -0.144
161 | CTCGCGGC | 0.334
162 | AGCCGCCC | 0.11
163 | CTATACTC | -0.222
164 | GCCAGTGA | -0.135
165 | CGCTGAAC | 0.105
166 | CGCCCAAA | 0.0325
167 | CAACCCGC | -0.064
168 | AACGACGC | 0.0702
169 | ATCCCTTC | -0.127
170 | ACTCTCCA | -0.0819
171 | TCACAGAA | 0.0134
172 | GACAGCCA | -0.133
